Assay results published in patent EP0307553B1, “Modified splenopentines, their process of preparation and their use” (priority 1987, dated 1989).

Tested on: Influenzavirus A/PR/8/34
Format: in vivo, Balb/c-Mäusen

(N^α-Acetyl-arginyl)(N^ε-acetyl-lysyl)glutamylvalyltyrosin [DAc-SP5]
Sterberate nach 6 Tagen in % (Infektionsdosis (EID₅₀) 10², therapy during infection: 0,5 mg/kg s.c. daily over 5 days from day of infection): 33,3% | Sterberate nach 6 Tagen in % (Infektionsdosis (EID₅₀) 10³, therapy during infection: 0,5 mg/kg s.c. daily over 5 days from day of infection): 66,6% | Sterberate nach 6 Tagen in % (Infektionsdosis (EID₅₀) 10¹, therapy during infection: 0,5 mg/kg s.c. daily over 5 days from day of infection): 33,3% | Sterberate nach 6 Tagen in % (Infektionsdosis (EID₅₀) 10⁴, before infection: 0,5 mg/kg s.c. 3 x per week during 2 weeks before infection): 100% | Sterberate nach 6 Tagen in % (Infektionsdosis (EID₅₀) 10⁴, therapy during infection: 0,5 mg/kg s.c. daily over 5 days from day of infection): 100% | Sterberate nach 6 Tagen in % (Infektionsdosis (EID₅₀) 10⁵, before infection: 0,5 mg/kg s.c. 3 x per week during 2 weeks before infection): 100% | Sterberate nach 6 Tagen in % (Infektionsdosis (EID₅₀) 10⁵, therapy during infection: 0,5 mg/kg s.c. daily over 5 days from day of infection): 100%

Like-named read-outs stand apart in the source and are kept apart here.
